± gives the standard deviation of the averaged measurements. The full ranking holds about 33,000 sequences; the median of “E-score (dimensionless, -0.5 to 0.5)” is about -0.046, and the highest 2% start at about 0.36. The list shows a part of the results.
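Note: protein at 200 nM in PBS on universal double-stranded arrays.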

This assay has as its system T1, SpTbr T-box DNA-binding domain (GST fusion).
T1 sequence: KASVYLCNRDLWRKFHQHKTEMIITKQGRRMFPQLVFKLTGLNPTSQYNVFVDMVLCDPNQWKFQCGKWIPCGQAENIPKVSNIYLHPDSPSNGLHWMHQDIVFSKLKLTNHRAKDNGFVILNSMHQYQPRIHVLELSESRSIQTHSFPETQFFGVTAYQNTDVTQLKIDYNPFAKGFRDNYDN
Description: PBM E-score of 8-mer (E-score (dimensionless, -0.5 to 0.5)); Tbr is Tbrain of the sea star Patiria miniata (Pm) or the sea urchin Strongylocentrotus purpuratus (Sp); higher = stronger binding preference; most listed sequences are background and not binding sites. To be noted: the construct has about 5 more residues each side. The method, then:
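Universal protein-binding microarray (Agilent AMADID 016060, 60-bp probes with a 35-bp variable region) incubated with 200 nM GST-fused Strongylocentrotus purpuratus Tbr T-box DNA-binding domain (residues 362-554) in PBS pH 7.5. Scored for every ungapped 8-mer (given with its reverse complement) as E-score (range -0.5 to 0.5; >0.45 counts as bound) and Z-score of median probe intensity. Two replicate arrays (datasets 1 and 2).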
ATACGGTG: the “PBM E-score of 8-mer” value is -0.0108 ± 0.036. For the sequence AACTACCT, the “PBM E-score of 8-mer” value was -0.102 ± 0.011.

For GCGCAACA, the “PBM E-score of 8-mer” value was 0.141 ± 0.021.

As for CCGGTAAC, the “PBM E-score of 8-mer” value amounted to 0.115 ± 0.081. In the case of ACGATGCC, the “PBM E-score of 8-mer” value is -0.0471 ± 0.083. On to ATCAACAA, for which the “PBM E-score of 8-mer” value was 0.152 ± 0.048. For CTAAAGCC, the “PBM E-score of 8-mer” value was -0.181 ± 0.012. The same measure for ATAAGTTG: -0.182 ± 0.065; for AGGAAGTG: 0.272 ± 0.0086. The same measure for GTACGTGA: 0.132 ± 0.017; for ATGAAATG: -0.191 ± 0.033.

On to GGCTGAAC, for which the “PBM E-score of 8-mer” value is -0.313 ± 0.045. The same measure for GCGTCTTA: -0.0272 ± 0.028; for CCGACACC: 0.438 ± 0.0068; for CTGTTCAA: -0.127 ± 0.0074. Take CACGCTTC: the “PBM E-score of 8-mer” value stood at 0.3583 ± 0.0029. Under CCCATTTC stands -0.0689 ± 0.014; under GTGCGCTA, -0.0713 ± 0.066. The same measure for AAATAGCT: -0.162 ± 0.013. The same measure for AAACGACT: 0.113 ± 0.016; for CTATCATA: -0.0311 ± 0.033. Regarding CAGCATCA, the “PBM E-score of 8-mer” value was -0.204 ± 0.075.

For the sequence GCCATTTA, the “PBM E-score of 8-mer” value is -0.029 ± 0.046. Under TATTTTGA stands -0.0718 ± 0.011; under CAAAGGCA, -0.134 ± 0.053; under TCGTCCAA, -0.155 ± 0.016. For the sequence ATGGGAAT, the “PBM E-score of 8-mer” value is -0.095 ± 0.045. Under GCATGCCA stands -0.00391 ± 0.16; under ACTATACT, 0.119 ± 0.0073.

Regarding TTCCCCAA, the “PBM E-score of 8-mer” value is -0.0683 ± 0.032.

In the case of CAAGTTAA, the “PBM E-score of 8-mer” value was -0.113 ± 0.091. Consider CGGTACCC, for which the “PBM E-score of 8-mer” value was -0.0829 ± 0.037.

Consider AACTGGCA, for which the “PBM E-score of 8-mer” value was found to be 0.221 ± 0.012. Turning to CCGCATGC, the “PBM E-score of 8-mer” value was -0.152 ± 0.11.

Turning to CCCAGCAG, the “PBM E-score of 8-mer” value is -0.115 ± 0.026. In the case of AACTCAAT, the “PBM E-score of 8-mer” value is -0.284 ± 0.01. Turning to AACAATGG, the “PBM E-score of 8-mer” value is -0.0828 ± 0.031. The same measure for GCGAATAC: 0.228 ± 0.018; for TAGACAAA: -0.203 ± 0.012. Under CCAGGCCA stands -0.259 ± 0.049. Under AATGTTCG stands 0.0235 ± 0.046.

ATCTCTAG: the “PBM E-score of 8-mer” value came to 0.0241 ± 0.017. The same measure for ATACTTTA: -0.168 ± 0.053; for CCGTCCCC: -0.155 ± 0.057; for CTGCATAC: -0.169 ± 0.0072. As for AGAGCAGG, the “PBM E-score of 8-mer” value is -0.135 ± 0.04. Under TATCGAGA stands 0.124 ± 0.014; under CCCAGGGG, -0.157 ± 0.023. The same measure for ACAAGACT: -0.0149 ± 0.097; for GGTAGCCA: -0.105 ± 0.065. As to GGTTGCGA, the “PBM E-score of 8-mer” value was 0.266 ± 0.015. Take CGGGGTTA: the “PBM E-score of 8-mer” value is -0.11 ± 0.027. The same measure for AAGTTGCG: 0.2806 ± 0.00023; for AATGTTGC: 0.0243 ± 0.044; for ATAGCAAT: -0.0521 ± 0.0064. Under CCCGCTCC stands 0.0149 ± 0.04; under CAGGCACG, -0.0364 ± 0.02. AGATTGGC: the “PBM E-score of 8-mer” value came out at 0.0293 ± 0.042. Take AAGGCCGC: the “PBM E-score of 8-mer” value came out at 0.048 ± 0.0025.

As to CTTGATTA, the “PBM E-score of 8-mer” value was 0.0354 ± 0.099.

Take CTATATCA: the “PBM E-score of 8-mer” value is -0.11 ± 0.065. The same measure for GGTGGACA: -0.0378 ± 0.056. As to AAATTCGG, the “PBM E-score of 8-mer” value was -0.272 ± 0.023.

For ATAGAGTG, the “PBM E-score of 8-mer” value is 0.149 ± 0.022. Under ACGTTCGA stands -0.0834 ± 0.035. Under AAAATGTA stands 0.11 ± 0.1; under ATGACCAG, -0.0274 ± 0.0032; under AGATGAAC, -0.238 ± 0.021. In the case of TAGGGAAA, the “PBM E-score of 8-mer” value was -0.196 ± 0.0025. As to CTGTGTAA, the “PBM E-score of 8-mer” value was -0.0574 ± 0.063.

With AATCATAT, the “PBM E-score of 8-mer” value is -0.297 ± 0.02. As for CAGGATAC, the “PBM E-score of 8-mer” value is -0.172 ± 0.016. The same measure for CTTTCATA: -0.174 ± 0.21. As to AAGCCTCC, the “PBM E-score of 8-mer” value is -0.00958 ± 0.029. Under GTGACAAC stands 0.4467 ± 0.0025; under GCTAGAGA, 0.0436 ± 0.031. As to AAAATAGG, the “PBM E-score of 8-mer” value is -0.0106 ± 0.049.

With CCGGCGCC, the “PBM E-score of 8-mer” value was 0.194 ± 0.018. For GAGATGAA, the “PBM E-score of 8-mer” value was -0.124 ± 0.015. With GAAAGACC, the “PBM E-score of 8-mer” value was -0.0768 ± 0.03. Under CGACTCTC stands -0.164 ± 0.033; under ACGGTTCG, 0.167 ± 0.032; under CCGCCAAA, 0.1 ± 0.039. The same measure for AACTACAC: 0.216 ± 0.061; for CCACCCAG: -0.212 ± 0.031.

On to TACACAAA, for which the “PBM E-score of 8-mer” value came out at 0.00389 ± 0.055.

These data come from the supplement of paper PMC4166925.
